# Test results: PMC4336329 (PLoS ONE, 2015)
# Screen size: about 310,000 compounds; about 14,000 (4.5%) showed an effect of 50% or more. Effects have a minus sign here. The list shows a part of the results.
# Molecular target: human ether-à-go-go-related gene (hERG) potassium channel (human, UniProt Q12809)
# Test: primary screen, population patch clamp on CHO cells stably expressing hERG
# 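Further: peak tail current of the secondary pulse compared with the same well before compound.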
# human ether-à-go-go-related gene (hERG) potassium channel, sequence (Q12809 whole entry, looked up): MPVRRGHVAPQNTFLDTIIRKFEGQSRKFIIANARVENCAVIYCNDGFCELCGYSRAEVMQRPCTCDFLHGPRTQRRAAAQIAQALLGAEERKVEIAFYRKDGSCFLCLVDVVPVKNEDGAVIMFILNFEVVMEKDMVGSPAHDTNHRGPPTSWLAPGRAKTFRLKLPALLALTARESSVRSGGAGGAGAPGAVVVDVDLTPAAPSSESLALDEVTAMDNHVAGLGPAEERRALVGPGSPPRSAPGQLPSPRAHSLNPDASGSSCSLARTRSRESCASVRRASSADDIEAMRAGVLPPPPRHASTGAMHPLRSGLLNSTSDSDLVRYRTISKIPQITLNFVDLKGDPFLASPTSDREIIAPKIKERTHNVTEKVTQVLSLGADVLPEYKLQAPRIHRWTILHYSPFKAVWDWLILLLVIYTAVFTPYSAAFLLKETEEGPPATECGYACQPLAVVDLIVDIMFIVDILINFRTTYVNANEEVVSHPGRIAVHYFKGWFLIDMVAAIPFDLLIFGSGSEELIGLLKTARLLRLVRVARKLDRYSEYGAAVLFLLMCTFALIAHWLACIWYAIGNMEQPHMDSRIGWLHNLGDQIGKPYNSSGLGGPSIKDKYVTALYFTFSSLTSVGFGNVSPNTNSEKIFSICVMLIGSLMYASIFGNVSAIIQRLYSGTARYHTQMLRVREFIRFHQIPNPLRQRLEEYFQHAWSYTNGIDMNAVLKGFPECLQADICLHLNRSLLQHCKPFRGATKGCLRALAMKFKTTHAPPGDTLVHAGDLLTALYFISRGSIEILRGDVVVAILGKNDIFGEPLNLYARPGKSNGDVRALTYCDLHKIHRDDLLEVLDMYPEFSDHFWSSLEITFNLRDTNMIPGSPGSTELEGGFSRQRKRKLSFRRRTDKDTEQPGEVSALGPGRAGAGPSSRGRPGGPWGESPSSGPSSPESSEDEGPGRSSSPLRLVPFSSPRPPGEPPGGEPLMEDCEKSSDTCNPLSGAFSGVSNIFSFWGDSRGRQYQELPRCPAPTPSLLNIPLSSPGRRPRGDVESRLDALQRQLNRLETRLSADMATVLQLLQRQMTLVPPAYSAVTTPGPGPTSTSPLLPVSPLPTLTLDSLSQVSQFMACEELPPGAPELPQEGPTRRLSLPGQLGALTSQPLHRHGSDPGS
row,Structure (SMILES),"hERG current change (%, negative = inhibition) at 10uM [%]"
1,CCCNC(=O)N1[C@H]2CC[C@@H]1C(C(=O)OC)=C(c1cccc(OC)c1OC)C2,7.17
2,CC1=C(C)CC(C(=O)Nc2cccc(Cl)c2)C(C(=O)O)C1 (stereo not shown),9.8
3,CCCCC1CCC(C(=O)N(CCOC)c2c(N)n(CC(C)C)c(=O)[nH]c2=O)CC1 (stereo not shown),13
4,C/C(=N\NC(=O)COc1c(C)cccc1C)c1cccs1,7.96
5,Cc1nnc(SCC(=O)Nc2ccc(Cl)cn2)n1Cc1ccccc1,-16.7
6,COC(=O)N1CCN(c2ccc(C)cc2)C(C)C1 (stereo not shown),17
7,COc1ccc(C(=O)CC(=O)C(=O)Nc2ccc([N+](=O)[O-])cc2C)cc1,15.2
8,NNC(=O)c1ccc(Cn2cc(Cl)cn2)cc1,-8.03
9,CCN(Cc1ccccc1)S(=O)(=O)c1ccc(C(=O)N(CCCN(C)C)c2nc3cc4c(cc3s2)OCO4)cc1.Cl,-45.2
10,Cc1ccc(S(=O)(=O)NCCCNS(C)(=O)=O)cc1,-1.26
11,O=C(NC12CC3CC(CC(C3)C1)C2)C1CCCN1C(=O)Nc1ccccc1 (stereo not shown),9.13
12,CC12CCC(C(=O)NCCCN3CCOCC3)(C(Br)C1=O)C2(C)C (stereo not shown),8.83
13,CCCCOc1ccc(CSCCN)cc1Cl.Cl,-4.84
14,Cc1cc2ncn(C(=O)c3c(-c4ccccc4Cl)noc3C)c2cc1C,10.1
15,CC(=O)c1sc(C(C)(C)C)cc1NC(=O)c1ccccc1C(=O)O,17.1
16,COc1cc2c3c(c1)-c1c(sn(-c4cc(OC)ccc4OC)c1=S)C(C)(C)N3C(=O)C2=O,8.61
17,Cc1ccccc1-n1c(O)c(/C=N/c2nccs2)c(=O)[nH]c1=O [24811058],16.9
18,Cc1cc(SCC(=O)c2cccs2)n2nc(C)c(-c3ccc(Cl)cc3)c2n1,5.12
19,CCCCCCc1ccc(-c2ncc(N)cn2)cc1,-0.301
20,C=CCNc1nnc(Cc2ccc(C(C)C)cc2)c(=O)[nH]1,-0.924
21,Cc1cnc(C(=O)Nc2ccccc2-c2ccc(C)o2)cn1,5.64
22,CCC(C)NC(=O)C1CCN(CCCc2ccccc2)CC1.O=C(O)C(=O)O (stereo not shown),-1.26
23,COc1ccc(Cc2noc(CN(C)Cc3ccc(-n4cccn4)cc3)n2)cc1OC,-47.2
24,COc1ncc(C2=CC(=O)CC(C)(C)C2)cn1,2.5
25,C[N+]1(C)CC[C@H](OC(=O)[C@@](O)(c2ccccc2)C2CCCC2)C1.[Br-],-4.08
